Reference: PMC5988349 (Nature, 2018)

Molecular target: the molecule itself
Experiment: cryo-EM structure

B1: dynein light chain Robl1 (natural protein)
chain: not shown
- binding result: binds
